PMC10769071, “Methods optimization for the expression and purification of human calcium calmodulin-dependent protein kinase II alpha” (PLOS ONE, 2024)

Target: the molecule itself
Experiment: SEC; Superose 6 size-exclusion column; final buffer 20 mM HEPES pH 7.5, 200 mM NaCl; compared with a thyroglobulin standard at 660 kDa

B1: full-length wild-type human calcium/calmodulin-dependent protein kinase II alpha (CaMKIIα), isoform B ([…]), from the baculovirus-insect expression system (enzyme)
chain: not shown
modifications: NLS serine residues (Ser332-Ser335) phosphorylated in 52-53% of the sample; not phosphorylated at Thr286, Thr305 or Thr306
notes: Calcium/calmodulin-dependent protein kinase II alpha, human, isoform B ([…]; In the CaM-Sepharose step it was the pooled cation exchange eluate, not yet pure; also called BEVS CaMKII; CaMKIIα isoform 2; source: Tni insect cells (baculovirus, pFastBac), purified (Mono S or phosphocellulose cation exchange, CaM-Sepharose; Superose 6 before TEM); copies: 12
stoichiometry N: 12
